Measured values taken from the CheMixHub viscosity set.
This continues a long series; more values of the same kind are listed elsewhere.

Experiment: xn = mol fraction of the nth substance listed

CS(C)=O + O
Details	viscosity [mPa·s]
293.15 K, 101 kPa, x1 = 0.0275	1.291
293.15 K, 101 kPa, x1 = 0.0594	1.63
293.15 K, 101 kPa, x1 = 0.0965	2.093
293.15 K, 101 kPa, x1 = 0.1408	2.673
293.15 K, 101 kPa, x1 = 0.2628	4.117
293.15 K, 101 kPa, x1 = 0.3526	4.389
293.15 K, 101 kPa, x1 = 0.4782	3.902
298 K, 101 kPa, x1 = 0.01	0.96
298 K, 101 kPa, x2 = 0.33	2.7
298 K, 101 kPa, x2 = 0.43	3.11
298 K, 101 kPa, x2 = 0.52	3.45
298 K, 101 kPa, x2 = 0.59	3.68
298 K, 101 kPa, x2 = 0.65	3.73
298 K, 101 kPa, x2 = 0.7	3.64
298 K, 101 kPa, x2 = 0.78	3.16
298 K, 101 kPa, x2 = 0.81	2.83
298 K, 101 kPa, x2 = 0.84	2.51
298 K, 101 kPa, x2 = 0.89	1.93
298 K, 101 kPa, x2 = 0.91	1.69
298 K, 101 kPa, x2 = 0.93	1.5
298 K, 101 kPa, x2 = 0.96	1.18
298 K, 101 kPa, x2 = 0.98	1.06
298.15 K, 101 kPa, x1 = 0.08921	1.69
298.15 K, 101 kPa, x1 = 0.8856	2.175
298.15 K, 101.33 kPa, x1 = 0.025	1.097
298.15 K, 101.33 kPa, x1 = 0.055	1.35
298.15 K, 101.33 kPa, x1 = 0.09	1.719
298.15 K, 101.33 kPa, x1 = 0.09717	1.854
298.15 K, 101.33 kPa, x1 = 0.13	2.238
298.15 K, 101.33 kPa, x1 = 0.19	2.829
298.15 K, 101.33 kPa, x1 = 0.2026	3.03
298.15 K, 101.33 kPa, x1 = 0.26	3.459
298.15 K, 101.33 kPa, x1 = 0.48	3.45
298.15 K, 101.33 kPa, x1 = 0.5054	3.344
298.15 K, 101.33 kPa, x1 = 0.5937	2.976
298.15 K, 101.33 kPa, x1 = 0.67	2.278
298.15 K, 101.33 kPa, x1 = 0.6965	2.602
298.15 K, 101.33 kPa, x1 = 0.8321	2.264
298.15 K, 101.33 kPa, x1 = 0.9096	2.124
303.15 K, 101 kPa, x1 = 0.0036	0.814
303.15 K, 101 kPa, x1 = 0.0072	0.837
303.15 K, 101 kPa, x1 = 0.011	0.854
303.15 K, 101 kPa, x1 = 0.014	0.877
303.15 K, 101 kPa, x1 = 0.0177	0.901
303.15 K, 101 kPa, x1 = 0.0275	1.019
303.15 K, 101 kPa, x1 = 0.0594	1.269
303.15 K, 101 kPa, x1 = 0.06619	1.27
303.15 K, 101 kPa, x1 = 0.08921	1.48
303.15 K, 101 kPa, x1 = 0.0965	1.598
303.15 K, 101 kPa, x1 = 0.1408	2.004
303.15 K, 101 kPa, x1 = 0.2628	3.014
303.15 K, 101 kPa, x1 = 0.4782	2.924
303.15 K, 101 kPa, x1 = 0.8856	2.005
303.15 K, 101.33 kPa, x1 = 0.025	0.9948
303.15 K, 101.33 kPa, x1 = 0.055	1.205
303.15 K, 101.33 kPa, x1 = 0.09	1.506
303.15 K, 101.33 kPa, x1 = 0.1	1.609
303.15 K, 101.33 kPa, x1 = 0.13	1.977
303.15 K, 101.33 kPa, x1 = 0.19	2.55
303.15 K, 101.33 kPa, x1 = 0.2003	2.539
303.15 K, 101.33 kPa, x1 = 0.26	3.065
303.15 K, 101.33 kPa, x1 = 0.3023	3.149
303.15 K, 101.33 kPa, x1 = 0.3494	3.217
303.15 K, 101.33 kPa, x1 = 0.35	3.306
303.15 K, 101.33 kPa, x1 = 0.4044	3.191
303.15 K, 101.33 kPa, x1 = 0.48	3.151
303.15 K, 101.33 kPa, x1 = 0.5003	2.983
303.15 K, 101.33 kPa, x1 = 0.5974	2.674
303.15 K, 101.33 kPa, x1 = 0.67	2.066
303.15 K, 101.33 kPa, x1 = 0.6975	2.364
303.15 K, 101.33 kPa, x1 = 0.8999	1.911
308.15 K, 101 kPa, x1 = 0.0036	0.74
308.15 K, 101 kPa, x1 = 0.0072	0.762
308.15 K, 101 kPa, x1 = 0.011	0.781
308.15 K, 101 kPa, x1 = 0.014	0.8
308.15 K, 101 kPa, x1 = 0.0177	0.819
308.15 K, 101 kPa, x1 = 0.6195	2.355
308.15 K, 101.33 kPa, x1 = 0.025	0.9157
308.15 K, 101.33 kPa, x1 = 0.055	1.093
308.15 K, 101.33 kPa, x1 = 0.09	1.342
308.15 K, 101.33 kPa, x1 = 0.09717	1.442
308.15 K, 101.33 kPa, x1 = 0.1	1.421
308.15 K, 101.33 kPa, x1 = 0.13	1.735
308.15 K, 101.33 kPa, x1 = 0.19	2.291
308.15 K, 101.33 kPa, x1 = 0.2003	2.217
308.15 K, 101.33 kPa, x1 = 0.2026	2.303
308.15 K, 101.33 kPa, x1 = 0.26	2.681
308.15 K, 101.33 kPa, x1 = 0.3023	2.725
308.15 K, 101.33 kPa, x1 = 0.3208	2.819
308.15 K, 101.33 kPa, x1 = 0.35	2.942
308.15 K, 101.33 kPa, x1 = 0.4044	2.774
308.15 K, 101.33 kPa, x1 = 0.48	2.734
308.15 K, 101.33 kPa, x1 = 0.5003	2.627
308.15 K, 101.33 kPa, x1 = 0.5054	2.583
308.15 K, 101.33 kPa, x1 = 0.5937	2.336
308.15 K, 101.33 kPa, x1 = 0.5974	2.372
308.15 K, 101.33 kPa, x1 = 0.67	1.871
308.15 K, 101.33 kPa, x1 = 0.6965	2.095
308.15 K, 101.33 kPa, x1 = 0.6975	2.128
308.15 K, 101.33 kPa, x1 = 0.8321	1.848
308.15 K, 101.33 kPa, x1 = 0.8999	1.737
313.15 K, 101 kPa, x1 = 0.0036	0.67
313.15 K, 101 kPa, x1 = 0.0072	0.688
313.15 K, 101 kPa, x1 = 0.011	0.709
313.15 K, 101 kPa, x1 = 0.014	0.725
313.15 K, 101 kPa, x1 = 0.0177	0.742
313.15 K, 101 kPa, x1 = 0.0275	0.8362
313.15 K, 101 kPa, x1 = 0.0594	1.028
313.15 K, 101 kPa, x1 = 0.08921	1.15
313.15 K, 101 kPa, x1 = 0.0965	1.24
313.15 K, 101 kPa, x1 = 0.2628	2.283
313.15 K, 101 kPa, x1 = 0.3526	2.456
313.15 K, 101 kPa, x1 = 0.4782	2.334
313.15 K, 101.33 kPa, x1 = 0.025	0.7948
313.15 K, 101.33 kPa, x1 = 0.055	0.9555
313.15 K, 101.33 kPa, x1 = 0.09	1.198
313.15 K, 101.33 kPa, x1 = 0.1	1.26
313.15 K, 101.33 kPa, x1 = 0.19	1.911
313.15 K, 101.33 kPa, x1 = 0.2003	1.937
313.15 K, 101.33 kPa, x1 = 0.26	2.25
313.15 K, 101.33 kPa, x1 = 0.3023	2.377
313.15 K, 101.33 kPa, x1 = 0.3494	2.444
313.15 K, 101.33 kPa, x1 = 0.35	2.55
313.15 K, 101.33 kPa, x1 = 0.4044	2.447
313.15 K, 101.33 kPa, x1 = 0.48	2.478
313.15 K, 101.33 kPa, x1 = 0.5003	2.325
313.15 K, 101.33 kPa, x1 = 0.5974	2.119
313.15 K, 101.33 kPa, x1 = 0.67	1.671
313.15 K, 101.33 kPa, x1 = 0.6975	1.912
313.15 K, 101.33 kPa, x1 = 0.7981	1.742
313.15 K, 101.33 kPa, x1 = 0.8999	1.584
318.15 K, 101 kPa, x1 = 0.5193	2.025
318.15 K, 101 kPa, x2 = 0.702	2.102
318.15 K, 101 kPa, x2 = 0.743	1.985
318.15 K, 101 kPa, x2 = 0.812	1.672
318.15 K, 101 kPa, x2 = 0.867	1.346
318.15 K, 101 kPa, x2 = 0.91	1.086
318.15 K, 101 kPa, x2 = 0.945	0.88
318.15 K, 101 kPa, x2 = 0.975	0.724
318.15 K, 101.33 kPa, x1 = 0.025	0.7098
318.15 K, 101.33 kPa, x1 = 0.055	0.8496
318.15 K, 101.33 kPa, x1 = 0.09	1.059
318.15 K, 101.33 kPa, x1 = 0.09717	1.139
318.15 K, 101.33 kPa, x1 = 0.1	1.131
318.15 K, 101.33 kPa, x1 = 0.13	1.32
318.15 K, 101.33 kPa, x1 = 0.19	1.65
318.15 K, 101.33 kPa, x1 = 0.2003	1.713
318.15 K, 101.33 kPa, x1 = 0.3023	2.093
318.15 K, 101.33 kPa, x1 = 0.35	2.35
318.15 K, 101.33 kPa, x1 = 0.4044	2.164
318.15 K, 101.33 kPa, x1 = 0.4137	2.162
318.15 K, 101.33 kPa, x1 = 0.48	2.065
318.15 K, 101.33 kPa, x1 = 0.5003	2.076
318.15 K, 101.33 kPa, x1 = 0.5937	1.874
318.15 K, 101.33 kPa, x1 = 0.67	1.54
318.15 K, 101.33 kPa, x1 = 0.6965	1.705
318.15 K, 101.33 kPa, x1 = 0.6975	1.738
318.15 K, 101.33 kPa, x1 = 0.7981	1.588
318.15 K, 101.33 kPa, x1 = 0.8321	1.53
318.15 K, 101.33 kPa, x1 = 0.8999	1.457
318.15 K, 101.33 kPa, x1 = 0.9096	1.457
323.15 K, 101 kPa, x1 = 0.0275	0.7037
323.15 K, 101 kPa, x1 = 0.0594	0.8485
323.15 K, 101 kPa, x1 = 0.06619	0.84
323.15 K, 101 kPa, x1 = 0.08921	0.96
323.15 K, 101 kPa, x1 = 0.0965	1.038
323.15 K, 101 kPa, x1 = 0.1408	1.262
323.15 K, 101 kPa, x1 = 0.2628	1.804
323.15 K, 101 kPa, x1 = 0.3526	1.884
323.15 K, 101 kPa, x1 = 0.4782	1.934
323.15 K, 101.33 kPa, x1 = 0.1	1.019
323.15 K, 101.33 kPa, x1 = 0.2003	1.521
323.15 K, 101.33 kPa, x1 = 0.3023	1.855
323.15 K, 101.33 kPa, x1 = 0.3494	1.907
323.15 K, 101.33 kPa, x1 = 0.4044	1.942
323.15 K, 101.33 kPa, x1 = 0.5003	1.853
323.15 K, 101.33 kPa, x1 = 0.5974	1.721
323.15 K, 101.33 kPa, x1 = 0.6975	1.573
323.15 K, 101.33 kPa, x1 = 0.7981	1.454
323.15 K, 101.33 kPa, x1 = 0.8999	1.339
